Laboratory results taken from paper PMC7758049.
Substitutions are numbered along the chain they refer to. Results are given in words; binding and its absence hold for the method and conditions named. Some entries that bind do so weakly or less than the wild type. Tags and fused reporters may be left off the sequences shown.

Experiments:
[1] = molecular target: T1, BD-myc-Dhr1 (S. cerevisiae) (UniProt Q04217); assay: two-hybrid; AD-HA-Utp14 with BD-myc-Dhr1 (wild type or mutant); growth on SD-Leu-Trp-His- with 10 mM 3AT
T1 sequence: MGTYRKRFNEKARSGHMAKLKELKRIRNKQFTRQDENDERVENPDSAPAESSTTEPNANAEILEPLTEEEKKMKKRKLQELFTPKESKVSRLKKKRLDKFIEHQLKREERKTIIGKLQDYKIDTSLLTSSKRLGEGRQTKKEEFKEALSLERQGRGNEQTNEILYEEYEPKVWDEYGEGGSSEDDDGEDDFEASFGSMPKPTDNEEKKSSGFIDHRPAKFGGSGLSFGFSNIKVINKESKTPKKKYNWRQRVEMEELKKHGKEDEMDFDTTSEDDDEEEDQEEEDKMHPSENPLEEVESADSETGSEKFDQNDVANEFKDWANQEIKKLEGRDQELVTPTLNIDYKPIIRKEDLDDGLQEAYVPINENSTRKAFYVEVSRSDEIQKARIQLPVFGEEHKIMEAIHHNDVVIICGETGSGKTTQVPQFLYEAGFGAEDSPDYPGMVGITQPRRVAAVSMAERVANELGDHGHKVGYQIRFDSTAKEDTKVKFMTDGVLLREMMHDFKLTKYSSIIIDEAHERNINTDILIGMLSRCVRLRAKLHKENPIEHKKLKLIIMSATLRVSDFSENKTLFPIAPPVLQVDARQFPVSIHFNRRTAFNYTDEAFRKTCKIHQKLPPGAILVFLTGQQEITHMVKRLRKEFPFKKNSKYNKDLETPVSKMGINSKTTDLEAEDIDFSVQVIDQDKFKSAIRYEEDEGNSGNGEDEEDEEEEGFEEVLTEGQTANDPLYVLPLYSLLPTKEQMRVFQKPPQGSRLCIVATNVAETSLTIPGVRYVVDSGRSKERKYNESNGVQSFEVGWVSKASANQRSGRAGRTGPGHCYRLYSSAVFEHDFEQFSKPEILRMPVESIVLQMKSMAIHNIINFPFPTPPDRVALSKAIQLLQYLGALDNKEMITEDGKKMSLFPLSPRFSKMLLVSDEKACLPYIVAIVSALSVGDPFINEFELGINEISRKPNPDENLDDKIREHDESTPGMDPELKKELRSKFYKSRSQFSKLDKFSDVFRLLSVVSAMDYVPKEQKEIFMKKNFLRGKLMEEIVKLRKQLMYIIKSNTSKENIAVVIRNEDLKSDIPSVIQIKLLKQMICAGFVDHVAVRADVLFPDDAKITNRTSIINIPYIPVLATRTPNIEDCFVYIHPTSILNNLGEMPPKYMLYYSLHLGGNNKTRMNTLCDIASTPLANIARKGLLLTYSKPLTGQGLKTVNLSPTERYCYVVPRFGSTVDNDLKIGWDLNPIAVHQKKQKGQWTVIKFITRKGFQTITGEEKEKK

[2] = molecular target: T2, GAL4BD-c-myc-DHR1-E360K, E397D, E402G, D408Y (S. cerevisiae) (UniProt Q04217); assay: as above
T2 sequence: T1 sequence with E360K, E397D, E402G, D408Y

B1: AD-HA-Utp14 (protein, UniProt Q04500 1-899)
chain: MAKKKSKSRSKSSRRVLDALQLAEREINGEFDNSSDNDKRHDARRNGTVVNLLKRSKGDTNSDEDDIDSESFEDEELNSDEALGSDDDYDILNSKFSQTIRDKKENANYQEEEDEGGYTSIDEEDLMPLSQVWDMDEKTAQSNGNDDEDASPQLKLQDTDISSESSSSEESESESEDDEEEEDPFDEISEDEEDIELNTITSKLIDETKSKAPKRLDTYGSGEANEYVLPSANAASGASGKLSLTDMMNVIDDRQVIENANLLKGKSSTYEVPLPQRIQQRHDRKAAYEISRQEVSKWNDIVQQNRRADHLIFPLNKPTEHNHASAFTRTQDVPQTELQEKVDQVLQESNLANPEKDSKFEELSTAKMTPEEMRKRTTEMRLMRELMFREERKARRLKKIKSKTYRKIKKKELMKNRELAAVSSDEDNEDHDIARAKERMTLKHKTNSKWAKDMIKHGMTNDAETREEMEEMLRQGERLKAKMLDRNSDDEEDGRVQTLSDVENEEKENIDSEALKSKLGKTGVMNMAFMKNGEAREREANKETLRQLRAVENGDDIKLFESDEEETNGENIQINKGRRIYTPGSLESNKDMNELNDHTRKENKVDESRSLENRLRAKNSGQSKNARTNAEGAIIVEEESDGEPLQDGQNNQQDEEAKDVNPWLANESDEEHTVKKQSSKVNVIDKDSSKNVKAMNKMEKAELKQKKKKKGKSNDDEDLLLTADDSTRLKIVDPYGGSDDEQGDNVFMFKQQDVIAEAFAGDDVVAEFQEEKKRVIDDEDDKEVDTTLPGWGEWAGAGSKPKNKKRKFIKKVKGVVNKDKRRDKNLQNVIINEKVNKKNLKYQSSAVPFPFENREQYERSLRMPIGQEWTSRASHQELIKPRIMTKPGQVIDPLKAPFK
Which results are given for B1?
binding [1]: binds; binding [2]: no binding
